Test results published in the supplement of paper PMC4967469.

What was measured:
Test in all cases: Viability of human cancer cell lines after 72 h of drug (GDSC screen)
Bleomycin = compound: Cc1c(N)nc([C@H](CC(N)=O)NC[C@H](N)C(N)=O)nc1C(=O)N[C@H](C(=O)N[C@H](C)[C@@H](O)[C@H](C)C(=O)N[C@H](C(=O)NCCc1nc(-c2nc(C(=O)NCCC[S+](C)C)cs2)cs1)[C@@H](C)O)[C@@H](OC1OC(CO)C(O)C(O)C1OC1OC(CO)C(O)C(OC(N)=O)C1O)c1cnc[nH]1 [Bleomycin]
Procedure: (§1)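 Human cancer cell lines in 384-well plates, medium with 10% serum, drug for 72 h over a 256-fold dose range (nine 2-fold or five 4-fold steps up to the top dose). Adherent lines were fixed and stained with the nucleic acid dye Syto60, suspension lines read with resazurin; signal relative to control wells, capped at 0 and 100%. One two-parameter sigmoid per drug and line, fitted in a mixed model over all curves with the slope shared within a line.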

VNLG/124 = compound: CCCC(=O)OCc1ccc(OC(=O)/C=C(C)/C=C/C=C(C)/C=C/C2=C(C)CCCC2(C)C)cc1 [VNLG/124]; conditions: top dose 5.12 µM; top dose inferred
Procedure: as §1

Elesclomol = compound: CN(NC(=O)CC(=O)NN(C)C(=S)c1ccccc1)C(=S)c1ccccc1 [Elesclomol]; conditions: top dose 0.2 µM; top dose inferred
Procedure: as §1

BX-912 = compound: O=C(Nc1cccc(Nc2ncc(Br)c(NCCc3cnc[nH]3)n2)c1)N1CCCC1 [BX-912]; conditions: top dose 10.24 µM; top dose inferred
Procedure: as §1

NSC-87877 = compound: O=S(=O)(O)c1ccc2cc(N=Nc3cc(S(=O)(=O)O)c4cccnc4c3O)ccc2c1 [NSC-87877]; conditions: top dose 16 µM; top dose inferred
Procedure: as §1

LAQ824 = compound: O=C(/C=C/c1ccc(CN(CCO)CCc2c[nH]c3ccccc23)cc1)NO [LAQ824]; conditions: top dose 1.024 µM; top dose inferred
Procedure: as §1

Masitinib = compound: Cc1ccc(NC(=O)c2ccc(CN3CCN(C)CC3)cc2)cc1Nc1nc(-c2cccnc2)cs1 [Masitinib]; conditions: top dose 20 µM
Procedure: as §1

HG-5-88-01 = compound: COc1cc(N2CCC(C(N)=O)CC2)ccc1Nc1nc(N)c(Cl)c(Nc2ccccc2S(=O)(=O)C(C)C)n1 [HG-5-88-01]; conditions: top dose 10 µM; top dose inferred
Procedure: as §1

OSI-930 = compound: O=C(Nc1ccc(OC(F)(F)F)cc1)c1sccc1NCc1ccnc2ccccc12 [OSI-930]; conditions: top dose 10.24 µM
Procedure: as §1

Tamoxifen = compound: CC/C(=C(\c1ccccc1)c1ccc(OCCN(C)C)cc1)c1ccccc1 [Tamoxifen]; conditions: top dose 5 µM
Procedure: as §1

[1] = top dose 50 µM, screen: GDSC drug entry 1378, top dose inferred
[2] = top dose 64 µM, screen: GDSC drug entry 190

Cell Line	AUC (Bleomycin; [1])	pIC50 (Bleomycin; [1])	AUC (Bleomycin; [2])	pIC50 (Bleomycin; [2])	AUC (VNLG/124)	pIC50 (VNLG/124)	AUC (Elesclomol)	pIC50 (Elesclomol)	AUC (BX-912)	pIC50 (BX-912)	AUC (NSC-87877)	pIC50 (NSC-87877)	AUC (LAQ824)	pIC50 (LAQ824)	AUC (Masitinib)	pIC50 (Masitinib)	AUC (HG-5-88-01)	pIC50 (HG-5-88-01)	AUC (OSI-930)	pIC50 (OSI-930)	AUC (Tamoxifen)	pIC50 (Tamoxifen)
OCI-AML3 (acute myeloid leukaemia, suspension)	0.666	5.08	0.875	4.32	0.887	5.37	0.987	< 6.70	0.85	5.21	0.981	< 4.80	0.392	7.47	0.856	4.90	0.948	< 5.00	0.887	5.06	0.981	< 5.30
TK (B-cell lymphoma, suspension)	0.985	< 4.30	0.932	< 4.19	0.989	< 5.29	0.781	7.12	0.935	< 4.99	0.989	< 4.80	0.406	7.44	0.884	4.74	0.944	< 5.00	0.981	< 4.99	0.987	< 5.30
HCC2998 (large intestine, adherent)	0.665	5.05	0.034	> 6.60	0.984	< 5.29	0.84	6.88	0.953	< 4.99	0.968	< 4.80	0.437	7.36	0.942	< 4.70	0.952	< 5.00	0.979	< 4.99	0.985	< 5.30
EW-1 (Ewing sarcoma, semi-adherent)	0.361	5.88	0.402	5.66	0.968	< 5.29	0.38	8.22	0.595	5.94	0.884	4.83	0.366	7.55	0.843	4.90	0.971	< 5.00	0.939	< 4.99	0.988	< 5.30
HuP-T3 (pancreas, adherent)	0.706	4.86	0.516	5.35	0.98	< 5.29	0.556	7.74	0.937	< 4.99	0.974	< 4.80	0.545	7.06	0.916	< 4.70	0.815	5.15	0.964	< 4.99	0.977	< 5.30
A101D (melanoma, adherent)	0.506	5.49	0.254	6.18	0.98	< 5.29	0.57	7.69	0.892	< 4.99	0.975	< 4.80	0.443	7.36	0.97	< 4.70	0.915	< 5.00	0.98	< 4.99	0.886	< 5.30
K5 (thyroid, adherent)	0.193	6.39	0.767	4.64	0.982	< 5.29	0.439	8.07	0.932	< 4.99	0.988	< 4.80	0.444	7.34	0.875	4.74	0.906	< 5.00	0.984	< 4.99	0.986	< 5.30
DoTc2-4510 (cervix, adherent)	0.889	< 4.30	0.184	6.32	0.988	< 5.29	0.981	< 6.70	0.956	< 4.99	0.982	< 4.80	0.316	7.69	0.958	< 4.70	0.969	< 5.00	0.972	< 4.99	0.987	< 5.30
LU-65 (large cell lung carcinoma, suspension)	0.966	< 4.30	0.703	4.77	0.981	< 5.29	0.957	< 6.70	0.864	< 4.99	0.986	< 4.80	0.664	6.70	0.908	< 4.70	0.957	< 5.00	0.961	< 4.99	0.982	< 5.30
TE-8 (oesophagus, adherent)	0.576	5.29	0.211	6.28	0.984	< 5.29	0.459	8.02	0.867	< 4.99	0.976	< 4.80	0.166	8.25	0.948	< 4.70	0.983	< 5.00	0.961	< 4.99	0.981	< 5.30
NY (osteosarcoma, adherent)	0.507	5.49	0.403	5.66	0.988	< 5.29	0.791	7.05	0.946	< 4.99	0.986	< 4.80	0.32	7.69	0.989	< 4.70	0.972	< 5.00	0.976	< 4.99	0.987	< 5.30

pIC50: −log10 of the molar value. A lower IC50 marks a more sensitive line; a limit (>, <) means that the fit lies beyond the doses tested. The AUC spans the tested range (256-fold, ending at the top dose) of the same fit; values near 1 show little effect. For some assays here: Where the top dose is marked as inferred, it was calculated from the reported fits. For some assays here: Drugs with an entry number were screened twice under separate entries, and the two screens often disagree.
